This passage reports z-score results from PubChem BioAssay AID488969 (Vanderbilt High Throughput Screening Facility, 2010).

Over roughly 110,000 compounds, “z-score” has its median near -0.1; the highest 2% begin near 2. Some of the results follow. The source made the active and inactive calls.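 Rule for the calls: active = z-score in the third read window above 3 or below -3; inactive = the rest.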

The experiment addresses Metabotropic glutamate receptor 8 (Rattus norvegicus) (UniProt P70579). In words: mGluR8 Gi/Go-coupled signaling modulation – cell-based, rat, thallium flux, HTS, primary screen (AID 488969). Particulars: HEK293 rat mGluR8, GIRK (G protein-gated inwardly rectifying potassium channel) thallium flux, FluoZin2; at 10 µM; stronger effect = higher value; submaximal glutamate (EC20) added with thallium.
Chain of UniProt P70579 (P70579 whole entry, looked up): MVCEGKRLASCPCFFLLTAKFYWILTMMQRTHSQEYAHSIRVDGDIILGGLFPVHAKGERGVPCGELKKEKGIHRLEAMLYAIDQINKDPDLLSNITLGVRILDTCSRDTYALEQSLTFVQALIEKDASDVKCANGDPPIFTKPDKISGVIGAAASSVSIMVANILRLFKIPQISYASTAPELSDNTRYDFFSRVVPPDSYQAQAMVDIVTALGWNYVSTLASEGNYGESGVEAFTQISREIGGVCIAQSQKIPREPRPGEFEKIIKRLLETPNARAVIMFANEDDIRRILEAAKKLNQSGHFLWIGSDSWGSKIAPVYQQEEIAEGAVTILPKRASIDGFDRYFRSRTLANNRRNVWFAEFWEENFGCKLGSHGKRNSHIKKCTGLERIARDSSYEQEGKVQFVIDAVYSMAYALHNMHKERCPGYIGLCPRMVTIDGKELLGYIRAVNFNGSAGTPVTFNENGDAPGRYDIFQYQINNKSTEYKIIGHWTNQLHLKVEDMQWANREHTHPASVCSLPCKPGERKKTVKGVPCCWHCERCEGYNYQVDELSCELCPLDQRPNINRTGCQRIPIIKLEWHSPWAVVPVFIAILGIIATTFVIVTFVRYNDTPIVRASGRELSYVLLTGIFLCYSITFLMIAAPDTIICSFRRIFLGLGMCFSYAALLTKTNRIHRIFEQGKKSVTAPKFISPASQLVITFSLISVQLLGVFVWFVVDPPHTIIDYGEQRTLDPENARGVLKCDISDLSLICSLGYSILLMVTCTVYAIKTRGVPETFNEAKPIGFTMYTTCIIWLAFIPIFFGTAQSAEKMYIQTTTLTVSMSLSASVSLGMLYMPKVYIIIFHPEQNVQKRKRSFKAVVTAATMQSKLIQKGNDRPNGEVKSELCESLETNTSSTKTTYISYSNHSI
Turning to `CCN(CC)S(=O)(=O)c1ccc(Cl)c(C(=O)NC)c1`, the z-score is 0.574.
`Cc1cccc(NC(=O)CS(=O)(=O)Cc2ccccc2)n1` returned a z-score of -0.17.
Take `O=C(c1csc2c1CCCCC2)N1CCN(c2ncccn2)CC1`: the z-score is -1.53.
In turn, `COc1ccccc1N1CCN(C(=O)c2ccc(S(=O)(=O)N3CCCCCC3)cc2)CC1` came in with a z-score of -0.714.
On to `Cc1c(NC(=O)C(C)Sc2ccc3ccccc3n2)c(=O)n(-c2ccccc2)n1C` (configuration not stated), for which the z-score came to 0.238.
Consider `CCOC(=O)C1=C(Nc2ccccc2)OCC1=O`, for which the z-score was -0.0728.
Next, `CCN(C(=O)CN1CCN(c2ccccc2O)CC1)c1c(N)n(Cc2ccccc2)c(=O)[nH]c1=O`: active: 14.3.
As for `Cn1nc(C(=O)NCc2cccs2)c2ccccc2c1=O`, the z-score is -0.226.
Next, `Cc1cc(C)c(NC(=O)C(C)c2cccc(C(=O)c3ccccc3)c2)c(C)c1` (configuration not stated): -0.519.
Consider `Cc1nc(NC(=O)c2ccccc2)sc1-c1csc(NCCc2ccccc2)n1`, for which the z-score was 0.0397.
Next, `Cc1sc(NC(=O)c2cc(-c3ccc(Cl)cc3)nc3ccccc23)c(C(N)=O)c1C`: -0.126.
Next, `CSCCC(NC(N)=O)C(=O)N(C)CC(=O)Nc1ccc(C)cc1` (configuration not stated): 0.191; `C=CCn1c2ccccc2c2nnc(SCC(=O)OCN3C(=O)c4ccccc4C3=O)nc21`: -0.529.
For `CCCCNC(=O)c1cc2c(-c3ccc(Cl)cc3)nn(C)c2s1`, the z-score is -0.213.
`Cc1cnc(NC(=O)CSc2nnc(-c3ccc(Cl)cc3Cl)n2N)s1`: the z-score was -0.296.
Molecule `COc1ccc2nc(NC(C)=O)sc2c1` came in with a z-score of -0.0562.
The same measure for `COc1ccccc1C(=O)N1CCN=C1c1ccccc1`: -0.0756.
Take `CS(=O)(=O)N(CC(=O)O)c1ccc2c(c1)OCO2`: the z-score is -2.86.
For `CCOC(=O)c1ccc(Oc2cc(C)nc(SC)n2)cc1`, the z-score was -0.937.
On to `O=S(=O)(c1cccs1)N1CCN(Cc2nc3ccccc3s2)CC1`, for which the z-score came to 0.00246.
Turning to `COc1cccc(OCCn2ccnc2)c1`, the z-score came to 0.0176.
Consider `CC(=O)C1C(c2ccc(Br)cc2)C2C(C)=NN=C2CC1(C)O` (configuration not stated), for which the z-score is -0.0546.
`Fc1cc(F)c2nc(N3CCCCC3)sc2c1`: the z-score is -0.14.
`CSc1cccc(NC(=O)CN(C)S(=O)(=O)c2ccccc2)c1` returned a z-score of -0.0254.
`O=C(CSc1n[nH]c(-c2ccccc2)n1)Nc1ccc(Br)cn1` yielded a z-score of -0.176.
The molecule `Cc1[nH]c2ccccc2c1C(=O)/C=C/c1ccccc1` had a z-score of -0.0814.
Next, `CCc1nnc(NC(=O)Nc2ccc(OC)cc2)s1`: 1.1; `CC1(C)Cc2c(c(N3CCOCC3)nc3sc4c(NCc5ccco5)nnnc4c23)CS1`: 0.14; `O=C(O)C1[C@H]2C(=O)N(C3CCCC3)C[C@]23C=C[C@H]1O3` (some centres not stated): 0.231.
On to `Cc1cccc(C)c1NC1=NC2(CCCCC2)N=C(N)N1`, for which the z-score worked out at 0.169.
`Cc1ccc(NC2=NCC(=O)N2Cc2ccccc2)c(C)c1` yielded a z-score of -0.66.
The same measure for `CCOC(=O)c1cnc(-n2nc(C)cc2C)nc1NC1CCCCC1`: -0.716.
